“And” between values parts separate entries of the source, which are not always exact repeats. Equal values may be shown once. Inconclusive results, whose numbers are uncertain, are shown with a selection of clear calls. For part of these data: Potencies beside an inconclusive call are fits to weak or partial responses and may not hold up. Some structures have more than one record in an assay (separate samples or runs), and their calls can disagree. The source made the active and inactive calls. Unless noted, calls come from the whole dose curve; as a rule, active = well fitted curve in the direction sought with a large enough effect in the repeat runs; inconclusive = weak or mixed curves; inactive = no such curve, though single readings can be large; an effect the other way counts as inactive or inconclusive.
Assays:
[1] = qHTS assay for small molecules that induce genotoxicity in human embryonic kidney cells expressing luciferase-tagged ATAD5 - cell viability (AID 651634; calls by dose curve; note: nearly all actives have a fitted effect of over 25% in size); conditions: HEK293T ATAD5-luc cells viability, CellTiter-Fluor, 15.5 h; series mostly up to 83.3 µM
In short: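 Cytotoxicity counter-readout: after 15.5 hr compound treatment at 37C, live-cell protease activity in ATAD5-luciferase HEK293T cells measured by CellTiter-Fluor fluorescence, 30 min development at 37C.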

[2] = qHTS assay for small molecule disruptors of the mitochondrial membrane potential (AID 720635); conditions: HepG2 mitochondrial membrane potential, Mito-MPS dye ratio; series mostly up to 83.2 µM
In short: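 HepG2 cells (2,000/well) attached overnight at 37C, then took compound for 1 hr at 37C, 5% CO2. Mito-MPS dye was added for 30 min; fluorescence was read at 490/535 nm (monomers) and 540/590 nm (aggregates).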

[3] = molecular target: Glucocorticoid receptor (Homo sapiens) (UniProt P04150); experiment: qHTS assay to identify small molecule agonists of the glucocorticoid receptor (GR) signaling pathway (AID 720691; active = well fitted activation curve with a large enough effect in the signal ratio in the repeat runs, not every such curve was filed as active; inconclusive = weak or mixed curves, or effect the other way; inactive = no such curve, though single readings can be large or run the other way; the % refers to the signal ratio); conditions: GR-bla HeLa, beta-lactamase reporter ratio, 18 h; series mostly up to 62.4 µM
In short: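 Agonist-mode qHTS in HeLa cells stably expressing a glucocorticoid-response-element beta-lactamase reporter. Fluorescence intensity read with FRET substrate (2 h, room temperature) after 18 h compound treatment at 37 C.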

[4] = qHTS assay to identify small molecule antagonists of the glucocorticoid receptor (GR) signaling pathway - cell viability counter screen (AID 720693); conditions: GR-bla HeLa viability, CellTiter-Glo luminescence, 18 h, with 5 nM dexamethasone present; series mostly up to 58.5 µM; note: nearly all actives have a fitted effect of over 55% in size
[5] = qHTS assay for identifying genotoxic compounds that show differential cytotoxicity against isogenic chicken DT40 cell lines with known DNA damage response pathways - wild type cell line (AID 743012); conditions: DT40 wild type chicken cells viability, CellTiter-Glo, 40 h; activity change, negative = cytotoxicity: at 68.4 µM (top of the series) unless noted; note: nearly all actives have a fitted effect of over 60% in size
In short: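 Viability by ATP luminescence (CellTiter-Glo, 30 min RT) after 40 h compound treatment at 37 C/5% CO2, using 300 parental DNA repair-proficient DT40 cells per well.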

[6] = qHTS assay for identifying genotoxic compounds that show differential cytotoxicity against isogenic chicken DT40 cell lines with known DNA damage response pathways - Rev3 mutant cell line (AID 743014); conditions: chicken DT40 Rev3-/- viability, CellTiter-Glo, 40 h; series mostly up to 68.4 µM; note: nearly all actives have a fitted effect of over 55% in size
[7] = qHTS assay to identify small molecule antagonists of the androgen receptor (AR) signaling pathway - cell viability counter screen (AID 743033; note: nearly all actives have a fitted effect of over 45% in size); conditions: AR-bla HEK293 viability, CellTiter-Glo luminescence, 16 h; activity change, negative = cytotoxicity: at 58.5 µM (top of the series)
[8] = qHTS assay for small molecule disruptors of the mitochondrial membrane potential - cell viability (AID 720634; calls by dose curve; note: nearly all actives have a fitted effect of over 20% in size); conditions: HepG2 viability, ATP luminescence (CellTiter-Glo), 1 h; series mostly up to 83.2 µM
In short: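 Cytotoxicity was quantified from ATP content by CellTiter-Glo luminescence in the same wells as the MMP dye read-out. HepG2 (2,000 cells/well) were plated overnight and exposed to compounds for 1 hr at 37 C.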

[9] = qHTS assay for identifying genotoxic compounds that show differential cytotoxicity against isogenic chicken DT40 cell lines with known DNA damage response pathways - Rad54/Ku70 mutant cell line (AID 743015); conditions: DT40 Rad54/Ku70 mutant viability, CellTiter-Glo, 40 h; activity change, negative = cytotoxicity: at 66.8 µM (top of the series); note: nearly all actives have a fitted effect of over 60% in size
Potency is the fitted concentration of half-maximal effect; tags give direction and shape of the fitted curve or compound fluorescence and quenching.

Chain of UniProt P04150 (P04150 whole entry, looked up): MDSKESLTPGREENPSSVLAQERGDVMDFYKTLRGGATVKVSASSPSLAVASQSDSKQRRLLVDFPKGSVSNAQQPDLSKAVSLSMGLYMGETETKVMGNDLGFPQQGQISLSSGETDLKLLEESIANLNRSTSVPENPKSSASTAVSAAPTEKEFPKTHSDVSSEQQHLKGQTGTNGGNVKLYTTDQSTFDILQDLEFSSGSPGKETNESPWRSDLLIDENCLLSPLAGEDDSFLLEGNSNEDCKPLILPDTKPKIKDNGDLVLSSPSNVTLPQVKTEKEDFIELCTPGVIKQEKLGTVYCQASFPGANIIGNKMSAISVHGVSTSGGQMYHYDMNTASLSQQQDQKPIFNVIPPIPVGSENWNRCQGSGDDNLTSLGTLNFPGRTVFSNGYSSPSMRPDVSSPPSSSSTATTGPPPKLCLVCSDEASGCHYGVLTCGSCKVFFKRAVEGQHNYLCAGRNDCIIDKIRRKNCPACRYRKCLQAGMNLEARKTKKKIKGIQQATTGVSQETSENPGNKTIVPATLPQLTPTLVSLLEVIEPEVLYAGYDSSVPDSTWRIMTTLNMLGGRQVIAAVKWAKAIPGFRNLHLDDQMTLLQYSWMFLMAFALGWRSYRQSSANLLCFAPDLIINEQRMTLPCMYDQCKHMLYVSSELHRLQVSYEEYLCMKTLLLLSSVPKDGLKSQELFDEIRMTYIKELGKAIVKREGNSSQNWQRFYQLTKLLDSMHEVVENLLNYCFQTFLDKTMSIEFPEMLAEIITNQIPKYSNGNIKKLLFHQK

| SMILES | Potency [1] | Potency [2] | Potency [3] | Potency [4] | Potency [5] | Potency [6] | Potency [7] | Potency [8] | Potency [9] |
| --- | --- | --- | --- | --- | --- | --- | --- | --- | --- |
| CCCCCCCCCCCCCC[P+](CCCCCC)(CCCCCC)CCCCCC | inconclusive: 38.5 µM [falling, partial curve, poor fit] | active: 434 nM and active: 616 nM and active: 273 nM | inconclusive: 9.82 µM [cytotoxic, full curve] and inconclusive: 7.82 µM [cytotoxic, full curve] | active: 12.4 µM and active: 11.1 µM and inconclusive: 2.18 µM [cytotoxic, full curve] | inconclusive: 17.2 µM [rising, partial curve, poor fit] | active: 7.73 µM and active: 6.16 µM and inactive | active: 982 nM and active: 3.92 µM and active: 346 nM | – | – |
| CC1(C)C(C(=O)OC(C#N)c2cccc(Oc3ccccc3)c2)C1(C)C (stereo not given) | – | inconclusive: 485 nM [activator, full curve, poor fit] | – | – | – | inconclusive: 68.5 µM [cytotoxic, single point] | – | inconclusive: 54.9 µM [cytotoxic, partial curve] | – |
| CCCCCCCCCCCCCCn1cc[n+](C)c1 | – | inconclusive: 3.44 µM [activator, full curve] and active: 10.7 µM and active: 34.3 µM | – | – | active: 217 nM and active: 241 nM and inactive | – | active: 6.93 µM and active: 24.3 µM | active: 54.6 µM and inconclusive: 76.1 µM [cytotoxic, partial curve, poor fit] | active: 122 nM and active: 135 nM and inactive |
